# Test results: PubChem BioAssay AID1671194 (National Center for Advancing Translational Sciences (NCATS), 2021)
# Screen size: about 140,000 compounds; about 240 (0.17%) were called active. Inconclusive means that the source gave no clear call. Such entries were picked first, then a sample of the others. Calls follow the shape of the dose curve; as a rule, active = well fitted inhibition curve with a large enough effect; inconclusive = small, poorly fitted or top-dose-only effect; inactive = no such curve, though single readings can be large or run the other way. A potency beside an inconclusive call is a rough fit, not a confirmed value.
# Assay: Primary qHTS assay for inhibitors of alpha-synuclein gene (SNCA) expression; also: nearly all actives have a fitted effect of over 45% in size
# Conditions: HEK-293 SNCA-luciferase knock-in, luminescence, 24 h; series mostly up to 57.2 µM
# Potency is read from the fitted curve at half-maximal effect; tags tell the direction and shape of the fitted curve.
row,Compound,Potency
1,COc1ccc(CN2Cc3[nH]cnc3C[C@H]2c2nc(-c3ccc(C)cc3)no2)cc1,"inconclusive: 6.31 µM [inhibitor, full curve]"
2,COc1ccccc1-c1ccc2ncnc(NCc3cccnc3)c2c1,"inconclusive: 3.16 µM [inhibitor, single point]"
3,COCCN1CCCCCC(O)c2cc(C(=O)N(CCN(C)C)Cc3ccccc3)ccc21 (stereo unspecified),"inconclusive: 1.26 µM [inhibitor, full curve]"
4,O=C(CCC1CCCN(S(=O)(=O)c2ccc(F)cc2)C1)NCCCN1CCOCC1 (stereo unspecified),inactive
5,COc1ccccc1Nc1ccnc(N2CCC(N[S+](=O)([O-])c3c(C)noc3C)CC2)n1,inactive
6,CCOc1cccc(C2Oc3nc(SC)nnc3-c3ccccc3N2C(C)=O)c1OC (stereo unspecified),"inconclusive: 2.82 µM [inhibitor, full curve, poor fit]"
7,COC(=O)[C@@H]1Cc2c([nH]c3ccccc23)[C@H]2C[C@@H](NC[C@H]3CCCO3)C[C@@H](c3ccccc3F)N21,inactive
8,COc1cccc(Cn2c(=O)c(-c3ccccc3)nc3cnc(OC)nc32)c1,"inconclusive: 8.91 µM [inhibitor, single point]"
9,COCCn1c(=O)[nH]c2cc(C(=O)N3CCN(c4ccc(F)cc4)CC3)ccc2c1=O,"inconclusive: 1 µM [inhibitor, full curve, poor fit]"
10,CNC(=O)N1CCC(C2CCN(C(=O)CCCC(=O)O)C2)CC1 (stereo unspecified),"inconclusive: 39.8 µM [inhibitor, single point]"
11,COc1ccccc1-c1n[nH]c2c1CC(=O)N(c1ccccc1)C2,inactive
12,COc1ccc(Nc2ccc3c(n2)CN(Cc2ccccc2C)C(=O)CO3)cc1,inactive
13,Cc1ccc(CNC(=O)N2CCCC(Cc3noc(-c4ccccc4)n3)C2)cc1 (stereo unspecified),"inconclusive: 28.2 µM [inhibitor, single point]"
14,COc1ccccc1-c1cc(C(=O)NCCCc2ccccc2)nn2cnnc12,"inconclusive: 14.1 µM [inhibitor, single point]"
15,Cc1oc(-c2ccccc2F)nc1Cn1c(SCc2cccc(Cl)c2)nc2ccncc21,"inconclusive: 39.8 µM [inhibitor, partial curve, poor fit]"
16,COc1ccccc1-c1cccc(CN2CCCC(C(=O)NCc3ccc(C(F)(F)F)cc3)C2)c1 (stereo unspecified),"inconclusive: 7.08 µM [inhibitor, partial curve, poor fit]"
17,O=C(NCc1cccs1)c1nc(-c2ccsc2)c2ccccn12,inactive
18,NC(=O)[C@@H](Cc1ccccc1)NC(=O)C1=C[C@@H](NC(=O)c2ccco2)[C@@H](O)[C@H](O)C1,"inconclusive: 7.94 µM [inhibitor, partial curve, poor fit]"
19,CCN(C(=O)CSc1nnc(C)n2c1cc1occc12)c1ccccc1,"inconclusive: 1.58 µM [inhibitor, partial curve, poor fit]"
20,COCCN1CCCN(C(=O)c2cccc(Cl)c2)c2ccccc21,"inconclusive: 1 µM [inhibitor, full curve]"
21,Cc1cccc(NC(=O)CSc2nc(=O)n(CCN3CCOCC3)c3c2CCC3)c1C,"inconclusive: 7.08 µM [inhibitor, single point]"

row,Compound,Potency
1,Cc1cc(C)cc(C(=O)N2CCCN(C)c3ccccc32)c1,"inconclusive: 0.794 µM [inhibitor, full curve, poor fit]"
2,O=C(NCc1nnc2ccc(-c3ccccc3)nn12)c1ccccc1Cl,inactive
3,Cc1ccc(C(=O)N2CCC(n3cc(-c4nc(C)no4)nn3)C2)c(C)c1 (stereo unspecified),"inconclusive: 1.58 µM [inhibitor, partial curve, poor fit]"
4,O=C1C(OCC2CC2)C2(CCCCC2)N1C1CCN(Cc2cccnc2)CC1 (stereo unspecified),"inconclusive: 39.8 µM [inhibitor, single point]"
5,O=C(Nc1ccc(-c2cccc(F)c2)cc1)C1CCCN1Cc1ccc(CO)o1 (stereo unspecified),inactive
6,O=S(=O)(c1ccccc1Cl)N1CCCC1c1nncn1C1CCCC1 (stereo unspecified),"inconclusive: 1.41 µM [inhibitor, partial curve, poor fit]"
7,O=C1COCCN1c1cc(-c2cnc3[nH]ccc3c2)cn2cncc12,inactive
8,CC1=C(C(=O)OC(C)C)C(c2ccccc2Cl)CC(=O)N1Cc1cc(F)cc(F)c1 (stereo unspecified),inactive
9,CCOC(=O)CSc1nc2c([nH]c3ccccc32)c(=O)n1-c1ccc(OCC)cc1,"inconclusive: 3.55 µM [inhibitor, single point]"
10,COc1cccc(-c2cc(C(=O)NCCc3ccc(C)cc3)[nH]n2)c1,"inconclusive: 39.8 µM [inhibitor, single point]"
11,CCCc1noc(-c2cn(C3CCN(C(=O)c4ccc(OC)cc4OC)CC3)nn2)n1,"inconclusive: 3.16 µM [inhibitor, full curve, poor fit]"
12,COc1ccccc1CNC(=O)Nc1ccc2c(c1)N(C)C(=O)c1ccccc1S2,"inconclusive: 15.8 µM [inhibitor, partial curve, poor fit]"
13,CC1(C(=O)Nc2ccc(F)c(Cl)c2)COCc2cnc(Nc3ccccc3)nc21 (stereo unspecified),"inconclusive: 10 µM [inhibitor, single point]"
14,COc1ccccc1-c1cccc(CN2CCCC(C(=O)N3CCN(C(C)=O)CC3)C2)c1 (stereo unspecified),inactive
15,CC(C)c1ccc(NC(=O)C2(Cc3cccnc3)CCCCC(=O)N2)cc1 (stereo unspecified),"inconclusive: 8.91 µM [inhibitor, single point]"
16,CCOc1ccccc1C1NC(=O)N(CC(=O)NCc2ccc(C)cc2)C2=C1C(=O)OC2 (stereo unspecified),"inconclusive: 8.91 µM [inhibitor, single point]"
17,Cc1ccc(C(=O)Nc2ccc3c(c2)N(C)C(=O)c2ccccc2S3)cc1F,"inconclusive: 3.16 µM [inhibitor, full curve]"
18,CC(C)NC(=O)N1CCNc2cnc(Nc3cccc(F)c3)nc2C1,inactive
19,CCn1cc(CNc2ncc(C(C)(C)C(=O)O)c(N3CCOCC3)n2)cn1,"inconclusive: 8.91 µM [inhibitor, partial curve, poor fit]"
20,CN(C)Cc1nnc(C2CC(Nc3cncc(C(=O)N(C)C)n3)C2)n1C (stereo unspecified),inactive
